Measured values: the supplement of paper PMC3334620
The full ranking holds about 33,000 sequences; the median of “E-score (-0.5 to 0.5)” is about -0.012, and the highest 2% start at about 0.29. Some of the results follow.

molecular target: T1, Ybr033w (UniProt P38073); assay: PBM E-score (8-mer binding enrichment) (E-score (-0.5 to 0.5)); higher = stronger / more preferred TF binding; most listed sequences are background and not binding sites; conditions: protein concentration: 200 nM; construct: GST-full length
T1 sequence: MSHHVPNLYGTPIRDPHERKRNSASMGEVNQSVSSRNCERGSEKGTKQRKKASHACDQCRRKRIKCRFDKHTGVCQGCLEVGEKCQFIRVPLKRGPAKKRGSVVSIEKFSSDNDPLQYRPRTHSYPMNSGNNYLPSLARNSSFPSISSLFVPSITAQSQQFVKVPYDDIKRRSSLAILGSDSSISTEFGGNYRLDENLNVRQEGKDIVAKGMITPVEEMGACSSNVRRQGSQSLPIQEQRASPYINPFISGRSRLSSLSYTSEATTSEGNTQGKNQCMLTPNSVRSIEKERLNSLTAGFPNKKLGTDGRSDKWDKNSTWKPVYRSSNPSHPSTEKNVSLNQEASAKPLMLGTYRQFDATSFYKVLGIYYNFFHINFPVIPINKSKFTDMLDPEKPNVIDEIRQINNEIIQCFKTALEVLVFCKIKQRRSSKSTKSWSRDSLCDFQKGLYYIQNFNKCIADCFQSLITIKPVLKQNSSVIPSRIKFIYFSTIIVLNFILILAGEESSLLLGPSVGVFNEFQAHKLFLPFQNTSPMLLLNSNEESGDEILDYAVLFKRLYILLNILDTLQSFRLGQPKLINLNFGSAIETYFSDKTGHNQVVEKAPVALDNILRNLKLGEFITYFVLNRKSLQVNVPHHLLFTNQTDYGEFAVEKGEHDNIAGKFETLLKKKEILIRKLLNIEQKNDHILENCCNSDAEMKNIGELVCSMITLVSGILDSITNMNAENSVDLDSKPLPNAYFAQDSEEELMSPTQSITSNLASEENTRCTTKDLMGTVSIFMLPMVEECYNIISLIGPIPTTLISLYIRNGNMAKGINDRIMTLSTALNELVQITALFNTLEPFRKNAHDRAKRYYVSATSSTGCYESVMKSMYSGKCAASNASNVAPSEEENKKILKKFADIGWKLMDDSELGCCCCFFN
In short: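 The E-score, a modified Wilcoxon-Mann-Whitney statistic, was computed by the Universal PBM Analysis Suite for every ungapped eight-base word pooled with its reverse complement. Scans behind it were normalised with masliner after bound GST-tagged yeast transcription factors were detected with fluorescent anti-GST. The proteins, at about 100-200 nM, had been applied to universal all-10-mer Agilent arrays made double-stranded by primer extension.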

Row | Sequence | PBM E-score
1 | AGCTTTAG | -0.00139
2 | GAATTGGC | -0.107
3 | ATAAACAT | 0.289
4 | GTATGCAA | 0.145
5 | AACCGGTA | 0.0283
6 | TAAGCTGA | 0.0674
7 | CAATCCAC | 0.0994
8 | ACCGTGTA | 0.0634
9 | CTCACCAC | -0.0271
10 | CTGAAGAA | -0.0479
11 | TAACCTAA | 0.173
12 | CCGTCTAA | 0.00875
13 | CTGTAAGA | 0.0151
14 | ATGAAAAT | 0.223
15 | TAAGAGGA | 0.0953
16 | ATGGCCAC | -0.317
17 | AAAATTAC | 0.22
18 | CAGTTCAG | 0.122
19 | AAGGCGAG | -0.147
20 | GTTGAAAA | 0.092
21 | ACCTATAG | -0.0077
22 | CTCAAGAC | -0.133
23 | GCAAAAAC | 0.248
24 | AGGCCATG | -0.136
25 | CCTCATAC | 0.0263

Row | Sequence | PBM E-score
26 | TCAGTAAA | 0.206
27 | CTCACCCC | -0.243
28 | CGTCCCAA | 0.00715
29 | CGCCGCGA | -0.0458
30 | GTTAACTA | 0.223
31 | CATCTCCC | -0.183
32 | CGACTGCA | -0.126
33 | AACCGACT | 0.0288
34 | AACAAACC | 0.105
35 | AGTGACTA | 0.0798
36 | ACAGATGC | -0.127
37 | CACCCGAC | -0.212
38 | CTGGCGTC | -0.172
39 | CCTTTTCA | -0.0844
40 | AAGCGCCA | -0.163
41 | ATTCCCTA | 0.157
42 | AGTCCAAA | -0.029
43 | ATTGTTGC | 0.132
44 | ACTTCAAT | 0.239
45 | CCAAAACG | 0.0101
46 | AAGAGCCC | -0.189
47 | CCACAGGA | -0.0851
48 | TACACCAA | -0.00646
49 | AATAGTCT | 0.21
50 | AGGCCACT | -0.165

Row | Sequence | PBM E-score
51 | TCGCAGAA | -0.164
52 | ACAGTTTC | 0.227
53 | AACTGCCC | -0.0882
54 | GCAGTTGA | 0.00275
55 | CCCCAGCA | -0.147
56 | TACCAAGA | 0.0696
57 | ATGTCGGC | -0.136
58 | AAAGGGCT | -0.246
59 | ACGCGCGT | 0.102
60 | AGCCTCGG | -0.209
61 | ACGTACAC | 0.135
62 | AGATGTCA | 0.0681
63 | TATTATAA | 0.197
64 | AAGCTCCC | -0.314
65 | GGTTATGA | 0.0397
66 | GGTGATCA | 0.0304
67 | CAGGCTCA | -0.00218
68 | AGCGCCGG | -0.111
69 | AACCAGTT | 0.168
70 | GGCTAAGA | -0.169
71 | TACTGAAA | 0.244
72 | AGACATTG | -0.0749
73 | ACGGAGTA | 0.0765
74 | GCCCCGAC | -0.295
75 | CGTACACC | -0.165

Row | Sequence | PBM E-score
76 | AGCCTGAT | -0.0369
77 | ATCGTCCA | -0.0597
78 | ATACGCAC | 0.0336
79 | GGCGTCGA | 0.023
80 | CCGACCTC | -0.0919
81 | TGTGGGAA | -0.0363
82 | AATCATTG | 0.198
83 | CTCAGACA | -0.00572
84 | ACGCCGTC | -0.0533
85 | ACTAATGC | 0.179
86 | AAGAACTG | 0.138
87 | ATATCCTA | 0.23
88 | CTCTTCTA | 0.0646
89 | ACGTGCGG | -0.196
90 | CCCCACGG | -0.205
91 | GGATTTAC | 0.24
92 | GAAGGTAA | 0.0785
93 | CTCAGATC | -0.0482
94 | GAATCTCA | -0.0766
95 | AGCTACTC | -0.0392
96 | CCACGACC | -0.0471
97 | GCTACATA | -0.0144
98 | CGGTCATC | -0.195
99 | AGCCACTA | -0.0733
100 | AGCTCGGC | -0.0694

Row | Sequence | PBM E-score
101 | CACATTAC | 0.0386
102 | AAAATGGG | -0.032
103 | CACTATAG | -0.0228
104 | GAGAAGGA | 0.058
105 | CCGGGCCA | -0.173
106 | GTAAAGCA | 0.168
107 | ATAAATAC | 0.211
108 | CGAAACGA | 0.204
109 | AAGTTTTG | 0.213
110 | GCGGGCGA | -0.0848
111 | ATAGATGC | 0.067
112 | AGATCTAC | 0.0175
113 | CAGTCGGA | 0.071
114 | CTACTAAA | 0.154
115 | CTTGGTTA | 0.123
116 | CTGAGTGC | -0.24
117 | GACCCGTA | -0.233
118 | CGGAGATC | -0.191
119 | CAACTCTA | 0.0327
120 | ACCTTATG | 0.0825
121 | TATGATGA | 0.198
122 | GTCAATAA | -0.0642
123 | CGCTACAA | 0.111
124 | AAGTAATG | 0.141
125 | CGGACGGC | -0.21

Row | Sequence | PBM E-score
126 | ATGTGGCA | -0.0748
127 | AGTTCGCC | 0.0528
128 | AATGCTAG | -0.131
129 | AAGCGATA | 0.0888
130 | CTGCGCCC | -0.362
131 | ACTTGATA | 0.265
132 | CGATTGCG | 0.0376
133 | CCTTTACC | -0.329
134 | AGCCATAG | -0.0454
135 | AGTGGTGA | 0.0237
136 | CCGGACGC | -0.145
137 | ACAAAACA | 0.26
138 | GTTATAAA | 0.203
139 | CTCACAGA | 0.0459
140 | ATGTAGTG | 0.141
141 | AAGACTTG | 0.0959
142 | GTTAGTAA | 0.17
143 | AGTTGCAG | -0.00615
144 | TTACTCAA | 0.177
145 | AACTCCCG | -0.0286
146 | ATGAAAGA | 0.119
147 | CATGCCAA | 0.0108
148 | ACTCGGCC | -0.0944
149 | CTTCCCCC | -0.345
150 | ATGCATAC | 0.131

Row | Sequence | PBM E-score
151 | ACGCGTTC | -0.124
152 | AAATAATC | 0.341
153 | CGACTCCG | -0.248
154 | TGGGCAAA | 0.0292
155 | CTAAAATA | 0.147
156 | AAAGCGCA | 0.0587
157 | GAGCCATC | -0.136
158 | CCCTCCCG | -0.17
159 | CCACGAAA | -0.0785
160 | CTCCGCTA | -0.0833
161 | AAGTCCGC | -0.125
162 | CGCCTGCC | -0.423
163 | GCTACCGA | -0.116
164 | AGGTCCGG | -0.139
165 | ACAGAACG | -0.0702
166 | CCGAGAAC | 0.155
167 | ACGCTGCA | -0.114
168 | GCTCTCAC | -0.308
169 | CCTCACCC | -0.0599
170 | AAGCTCAT | -0.0323
171 | AGGATCCA | -0.0511
172 | AACGCTAC | -0.143
